Assay results as given in PubChem BioAssay (Tox21).
Inconclusive means that the source gave no clear call. Such entries were picked first, then a sample of the others. Entries that show only a call come without a potency. For part of these data: Where the call is inconclusive, the potency comes from a doubtful curve fit. Calls of active or inactive are those of the source. Unless noted, calls follow the shape of the dose curve; as a rule, active = well fitted curve in the direction sought with a large enough effect in the repeat runs; inconclusive = weak or mixed curves; inactive = no such curve, though single readings can be large; an effect the other way counts as inactive or inconclusive.

Tests used:
[1] = qHTS assay for small molecule agonists of the p53 signaling pathway (AID 651631; calls by dose curve; also: nearly all actives have a fitted effect of over 15% in size); conditions: HCT-116 p53RE-bla reporter, beta-lactamase FRET ratio, 16 h; activation: at 73.3 µM (top of the series) unless noted
Method in brief: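 Beta-lactamase reporter activity under p53 response elements was quantified in HCT-116 cells by FRET fluorescence, following 16 h incubation with test compounds at 37 °C and 2 h substrate development at room temperature.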

[2] = qHTS assay for small molecule disruptors of the mitochondrial membrane potential (AID 720635); conditions: HepG2 mitochondrial membrane potential, Mito-MPS dye ratio; ratio activity, negative = MMP loss: at 83.2 µM (top of the series) unless noted; also: potency is read from the fitted curve at half-maximal effect
Method in brief: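 Mitochondrial membrane potential tracked with Mito-MPS dye, red aggregates (ex 540/em 590 nm) against green monomers (ex 490/em 535 nm). Compound treatment 1 hr at 37C, dye 30 min in HepG2.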

[3] = biological target: Glucocorticoid receptor (Homo sapiens) (UniProt P04150); assay: qHTS assay to identify small molecule antagonists of the glucocorticoid receptor (GR) signaling pathway (AID 720692; active = well fitted inhibition curve with a large enough effect in the signal ratio in the repeat runs, not every such curve was filed as active; inconclusive = weak or mixed curves, or effect the other way; inactive = no such curve, though single readings can be large or run the other way; the % refers to the signal ratio); conditions: GR-bla HeLa, beta-lactamase FRET ratio, dexamethasone-stimulated, 18 h; activity change, negative = inhibition: at 58.5 µM (top of the series) unless noted
Chain of UniProt P04150 (P04150 whole entry, looked up): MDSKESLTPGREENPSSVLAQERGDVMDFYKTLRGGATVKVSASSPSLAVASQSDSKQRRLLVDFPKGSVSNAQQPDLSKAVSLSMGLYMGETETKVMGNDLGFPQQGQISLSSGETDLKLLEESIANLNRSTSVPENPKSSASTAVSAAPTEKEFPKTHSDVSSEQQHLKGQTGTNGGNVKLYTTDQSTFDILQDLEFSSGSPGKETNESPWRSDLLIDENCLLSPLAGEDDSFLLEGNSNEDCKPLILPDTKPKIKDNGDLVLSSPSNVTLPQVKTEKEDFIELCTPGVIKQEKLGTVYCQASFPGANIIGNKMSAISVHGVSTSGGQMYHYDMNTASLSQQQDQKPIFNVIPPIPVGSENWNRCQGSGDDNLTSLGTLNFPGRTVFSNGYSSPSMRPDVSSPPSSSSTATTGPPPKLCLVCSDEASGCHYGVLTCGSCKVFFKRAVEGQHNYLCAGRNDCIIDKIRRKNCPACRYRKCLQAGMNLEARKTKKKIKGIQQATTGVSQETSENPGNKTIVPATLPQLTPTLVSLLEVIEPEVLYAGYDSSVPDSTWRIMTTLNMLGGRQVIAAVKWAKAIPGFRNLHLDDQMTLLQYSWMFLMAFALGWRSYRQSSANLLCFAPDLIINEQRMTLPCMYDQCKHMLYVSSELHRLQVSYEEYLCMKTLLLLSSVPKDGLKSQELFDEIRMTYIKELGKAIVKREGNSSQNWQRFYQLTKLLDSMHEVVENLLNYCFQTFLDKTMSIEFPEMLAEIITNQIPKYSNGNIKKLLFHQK
Method in brief: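 In a 1536-well cell format, compounds were added 4 h after seeding GR-bla HeLa cells, together with dexamethasone at 5 nM final; reporter activity was measured by FRET-substrate fluorescence following 18 h at 37 C.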

[4] = qHTS assay for identifying genotoxic compounds that show differential cytotoxicity against isogenic chicken DT40 cell lines with known DNA damage response pathways - wild type cell line (AID 743012); conditions: DT40 wild type chicken cells viability, CellTiter-Glo, 40 h; activity change, negative = cytotoxicity: at 68.4 µM (top of the series) unless noted; also: nearly all actives have a fitted effect of over 60% in size; also: potency is read from the fitted curve at half-maximal effect
Method in brief: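 Viability of DNA repair-proficient chicken DT40 cells was assessed by CellTiter-Glo luminescence following 40 h compound exposure at 37 C/5% CO2.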

[5] = qHTS assay for small molecule agonists of the antioxidant response element (ARE) signaling pathway (AID 743202; active = well fitted activation curve with a large enough effect in the signal ratio in the repeat runs, not every such curve was filed as active; inconclusive = weak or mixed curves, or effect the other way; inactive = no such curve, though single readings can be large or run the other way; the % refers to the signal ratio); conditions: HepG2 ARE-bla reporter, beta-lactamase FRET, 16 h; activation: at 73.3 µM (top of the series) unless noted
Method in brief: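 After 16 hours of compound treatment at 37 C, HepG2 cells with a stably integrated ARE-driven beta-lactamase reporter were loaded 2 hours at room temperature with LiveBLAzer B/G FRET substrate and fluorescence intensity measured.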

[6] = biological target: Vitamin D3 receptor (Homo sapiens) (UniProt P11473); assay: qHTS assay to identify small molecule antagonists of the vitamin D receptor (VDR) signaling pathway (AID 743223; active = well fitted inhibition curve with a large enough effect in the signal ratio in the repeat runs, not every such curve was filed as active; inconclusive = weak or mixed curves, or effect the other way; inactive = no such curve, though single readings can be large or run the other way; the % refers to the signal ratio); conditions: VDR-UAS-bla HEK293T, beta-lactamase FRET ratio, 16 h; activity change, negative = inhibition: at 61 µM (top of the series) unless noted
Chain of UniProt P11473 (P11473 whole entry, looked up): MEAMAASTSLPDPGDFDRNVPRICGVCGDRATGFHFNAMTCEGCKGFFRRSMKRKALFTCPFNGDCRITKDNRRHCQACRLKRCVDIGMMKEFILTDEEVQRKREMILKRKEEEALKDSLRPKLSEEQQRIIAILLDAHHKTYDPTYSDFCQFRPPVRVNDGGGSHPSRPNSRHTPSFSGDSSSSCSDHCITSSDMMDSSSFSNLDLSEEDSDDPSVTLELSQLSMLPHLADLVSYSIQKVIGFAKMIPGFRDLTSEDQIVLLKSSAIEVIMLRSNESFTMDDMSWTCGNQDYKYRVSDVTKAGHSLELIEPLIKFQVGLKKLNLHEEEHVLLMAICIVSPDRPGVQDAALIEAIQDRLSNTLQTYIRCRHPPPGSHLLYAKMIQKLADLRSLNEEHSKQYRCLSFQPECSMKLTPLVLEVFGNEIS
Method in brief: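 Inhibition of agonist-driven VDR signalling is scored in VDR-bla cells: 3 nM final 1alpha,25-dihydroxyvitamin D3 plus compound, 16 h at 37C, then beta-lactamase detection by FRET substrate fluorescence after 2 h.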

[7] = qHTS assay to identify small molecule agonists of the progesterone receptor (PR) signaling pathway - cell viability counter screen (AID 1346799; calls by dose curve; also: nearly all actives have a fitted effect of over 45% in size; also: potency is read from the fitted curve at half-maximal effect)
Method in brief: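 Multiplexed viability read: CellTiter-Glo luminescence, 30 min RT, following LiveBLAzer FRET measurement on PR-UAS-bla HEK293T cells exposed to compounds 16 hr.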

[8] = biological target: Peroxisome proliferator-activated receptor gamma (Homo sapiens) (UniProt P37231); assay: qHTS assay to identify small molecule antagonists of the peroxisome proliferator-activated receptor gamma (PPARg) signaling pathway (AID 743191; calls by dose curve; also: nearly all actives have a fitted effect of over 30% in size); conditions: HEK293H PPARg-UAS-bla, beta-lactamase ratio, antagonist, 17 h; ratio activity, negative = inhibition: at 62.6 µM (top of the series) unless noted
Chain of UniProt P37231 (P37231 whole entry, looked up): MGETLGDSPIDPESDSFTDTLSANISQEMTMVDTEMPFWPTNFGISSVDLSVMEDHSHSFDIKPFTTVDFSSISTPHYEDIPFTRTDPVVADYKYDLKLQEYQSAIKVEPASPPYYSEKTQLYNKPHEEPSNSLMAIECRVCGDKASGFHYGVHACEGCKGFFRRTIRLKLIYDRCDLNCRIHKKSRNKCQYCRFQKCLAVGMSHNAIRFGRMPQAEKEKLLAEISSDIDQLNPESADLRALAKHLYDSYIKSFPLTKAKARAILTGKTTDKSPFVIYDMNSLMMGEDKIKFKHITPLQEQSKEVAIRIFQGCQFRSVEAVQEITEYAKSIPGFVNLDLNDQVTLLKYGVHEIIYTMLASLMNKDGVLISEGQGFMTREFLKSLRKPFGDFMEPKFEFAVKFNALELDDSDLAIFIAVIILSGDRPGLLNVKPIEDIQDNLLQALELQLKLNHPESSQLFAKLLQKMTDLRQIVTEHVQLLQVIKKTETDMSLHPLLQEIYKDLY
Method in brief: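 Beta-lactamase reporter under UAS control in HEK293H PPARg-bla cells; compound treatment 17 h at 37C. Read-out: fluorescence intensity after 1 h room-temperature incubation with LiveBLAzer B/G FRET substrate.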

[9] = qHTS assay to identify small molecule agonists of the estrogen receptor beta (ER-beta) signaling pathway - cell viability counter screen (AID 1259380); also: nearly all actives have a fitted effect of over 30% in size
Method in brief: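 Compounds dissolved in DMSO were pin-transferred onto ER-beta-UAS-bla HEK293T cells that had settled 6 hr, and exposure ran 16 hr at 37C. Following the reporter read, CellTiter-Glo luminescence after 30 min at room temperature indicated cytotoxicity.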

[10] = biological target: Cytochrome P450 2C9 (Homo sapiens) (UniProt P11712); assay: Cytochrome P450 Family 2 Subfamily C Member 9 (CYP2C9) small molecule antagonists: luciferase reporter qHTS assay (AID 1671198); also: nearly all actives have a fitted effect of over 50% in size; also: potency is read from the fitted curve at half-maximal effect
Chain of UniProt P11712 (P11712 whole entry, looked up): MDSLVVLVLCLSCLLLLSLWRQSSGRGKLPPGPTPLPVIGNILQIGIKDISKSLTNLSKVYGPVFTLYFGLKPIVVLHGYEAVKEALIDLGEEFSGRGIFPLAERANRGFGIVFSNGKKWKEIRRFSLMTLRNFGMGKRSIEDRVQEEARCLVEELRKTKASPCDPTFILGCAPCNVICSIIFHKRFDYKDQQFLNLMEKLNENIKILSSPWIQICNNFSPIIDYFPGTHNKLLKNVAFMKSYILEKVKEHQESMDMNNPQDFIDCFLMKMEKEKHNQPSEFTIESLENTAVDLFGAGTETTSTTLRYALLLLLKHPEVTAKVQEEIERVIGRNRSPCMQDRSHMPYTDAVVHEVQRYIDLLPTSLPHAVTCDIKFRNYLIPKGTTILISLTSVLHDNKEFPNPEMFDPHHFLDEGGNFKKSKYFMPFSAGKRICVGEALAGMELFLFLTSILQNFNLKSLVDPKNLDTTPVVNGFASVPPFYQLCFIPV
Method in brief: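 Enzyme-substrate mix preincubated with compound 10 min at room temperature; reaction started with NADPH regeneration solution, 1 h 37C. Luminescent luciferin product read after 20 min detection reagent.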

[11] = biological target: Cytochrome P450 1A2 (Homo sapiens) (UniProt P05177); assay: Cytochrome P450 Family 1 Subfamily A Member 2 (CYP1A2) small molecule antagonists: luciferase reporter qHTS assay (AID 1671199); also: nearly all actives have a fitted effect of over 50% in size
Chain of UniProt P05177 (P05177 whole entry, looked up): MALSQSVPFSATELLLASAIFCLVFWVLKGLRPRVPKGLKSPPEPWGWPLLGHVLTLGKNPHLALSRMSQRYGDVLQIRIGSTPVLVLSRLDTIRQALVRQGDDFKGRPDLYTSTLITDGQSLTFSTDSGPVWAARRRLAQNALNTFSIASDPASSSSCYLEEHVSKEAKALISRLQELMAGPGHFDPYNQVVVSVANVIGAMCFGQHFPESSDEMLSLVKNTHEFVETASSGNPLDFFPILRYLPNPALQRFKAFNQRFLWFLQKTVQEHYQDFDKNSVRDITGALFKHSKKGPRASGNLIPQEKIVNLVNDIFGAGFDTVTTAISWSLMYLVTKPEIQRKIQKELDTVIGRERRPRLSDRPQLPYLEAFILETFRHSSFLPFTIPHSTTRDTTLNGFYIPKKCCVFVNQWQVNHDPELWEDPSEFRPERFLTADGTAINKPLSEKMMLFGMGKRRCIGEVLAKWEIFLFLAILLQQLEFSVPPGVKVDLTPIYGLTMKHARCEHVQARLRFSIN
Method in brief: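 Room-temperature CYP1A2 reaction with proluciferin substrate: compounds added from DMSO, 10 min preincubation, NADPH regeneration for 1 h. Luciferin detection reagent then added; luminescence recorded as RLU.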

[12] = qHTS assay for identifying genotoxic compounds that show differential cytotoxicity against isogenic chicken DT40 cell lines with known DNA damage response pathways - Rev3 mutant cell line (AID 743014); conditions: chicken DT40 Rev3-/- viability, CellTiter-Glo, 40 h; activity, negative = cytotoxicity: at 68.4 µM (top of the series) unless noted; also: nearly all actives have a fitted effect of over 55% in size; also: potency is read from the fitted curve at half-maximal effect
[13] = biological target: Estrogen receptor beta (Homo sapiens) (UniProt Q92731); assay: qHTS assay to identify small molecule antagonists of the estrogen receptor beta (ER-beta) signaling pathway (AID 1259378; active = well fitted inhibition curve with a large enough effect in the signal ratio in the repeat runs, not every such curve was filed as active; inconclusive = weak or mixed curves, or effect the other way; inactive = no such curve, though single readings can be large or run the other way; the % refers to the signal ratio); conditions: ER-beta-UAS-bla HEK293T, beta-lactamase FRET ratio, 16 h; activity, negative = inhibition: at 92.4 µM (top of the series) unless noted
Chain of UniProt Q92731 (Q92731 whole entry, looked up): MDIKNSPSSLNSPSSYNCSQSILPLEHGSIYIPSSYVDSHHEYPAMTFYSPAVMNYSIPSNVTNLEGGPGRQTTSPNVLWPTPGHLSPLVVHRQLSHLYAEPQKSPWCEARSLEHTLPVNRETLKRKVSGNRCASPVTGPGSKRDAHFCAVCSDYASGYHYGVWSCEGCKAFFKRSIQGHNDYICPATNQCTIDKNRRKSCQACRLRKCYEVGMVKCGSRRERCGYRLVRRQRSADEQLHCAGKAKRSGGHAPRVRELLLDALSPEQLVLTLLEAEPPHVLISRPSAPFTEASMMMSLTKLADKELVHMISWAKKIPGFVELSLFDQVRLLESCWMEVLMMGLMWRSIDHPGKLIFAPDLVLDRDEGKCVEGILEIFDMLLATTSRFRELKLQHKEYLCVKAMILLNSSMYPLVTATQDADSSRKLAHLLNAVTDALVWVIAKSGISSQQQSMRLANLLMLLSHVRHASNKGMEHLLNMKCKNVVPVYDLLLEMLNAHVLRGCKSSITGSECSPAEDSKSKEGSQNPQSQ
Method in brief: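 Antagonist mode: compounds added to beta-lactamase reporter HEK293T ER-beta-UAS cells stimulated with E2 (1nM final), 16 hr at 37C. LiveBLAzer B/G FRET substrate, 2 hours room temperature, fluorescence read-out.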

[14] = biological target: Cytochrome P450 2D6 (Homo sapiens) (UniProt P10635); assay: Cytochrome P450 Family 2 Subfamily D Member 6 (CYP2D6) small molecule antagonists: luciferase reporter qHTS assay (AID 1671196); also: nearly all actives have a fitted effect of over 50% in size; also: potency is read from the fitted curve at half-maximal effect
Chain of UniProt P10635 (P10635 whole entry, looked up): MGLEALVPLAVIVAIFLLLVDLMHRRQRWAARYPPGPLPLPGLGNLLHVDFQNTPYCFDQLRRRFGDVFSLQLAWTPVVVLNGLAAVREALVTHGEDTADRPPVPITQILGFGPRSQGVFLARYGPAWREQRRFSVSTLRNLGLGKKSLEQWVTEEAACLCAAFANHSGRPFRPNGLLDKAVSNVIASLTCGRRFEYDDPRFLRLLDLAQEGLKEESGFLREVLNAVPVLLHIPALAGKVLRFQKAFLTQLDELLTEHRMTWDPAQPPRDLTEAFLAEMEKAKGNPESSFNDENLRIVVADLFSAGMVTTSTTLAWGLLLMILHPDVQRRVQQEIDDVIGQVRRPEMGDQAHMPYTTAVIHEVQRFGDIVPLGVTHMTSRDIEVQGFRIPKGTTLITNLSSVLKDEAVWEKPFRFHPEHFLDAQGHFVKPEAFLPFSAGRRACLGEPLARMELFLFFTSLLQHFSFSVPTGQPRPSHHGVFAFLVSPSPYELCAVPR
Method in brief: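 Room-temperature luminescent CYP2D6 activity assay: compound preincubated 10 min with enzyme–substrate mix, NADPH-initiated reaction 1 h, detection reagent 20 min before reading.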

[15] = qHTS assay to identify small molecule agonists of H2AX - cell viability counter screen (AID 1224847; calls by dose curve; also: potency is read from the fitted curve at half-maximal effect; nearly all actives have a fitted effect of over 30% in size)
Method in brief: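 Compounds tested at 15 concentrations were incubated 3 hr at 37C with wild-type CHO-K1 cells; cellular ATP-based luminescence (CellTiter-Glo) indicated viability.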

[16] = biological target: Cytochrome P450 2C19 (Homo sapiens) (UniProt P33261); assay: Cytochrome P450 Family 2 Subfamily C Member 19 (CYP2C19) small molecule antagonists: luciferase reporter qHTS assay (AID 1671197); also: nearly all actives have a fitted effect of over 65% in size; also: potency is read from the fitted curve at half-maximal effect
Chain of UniProt P33261 (P33261 whole entry, looked up): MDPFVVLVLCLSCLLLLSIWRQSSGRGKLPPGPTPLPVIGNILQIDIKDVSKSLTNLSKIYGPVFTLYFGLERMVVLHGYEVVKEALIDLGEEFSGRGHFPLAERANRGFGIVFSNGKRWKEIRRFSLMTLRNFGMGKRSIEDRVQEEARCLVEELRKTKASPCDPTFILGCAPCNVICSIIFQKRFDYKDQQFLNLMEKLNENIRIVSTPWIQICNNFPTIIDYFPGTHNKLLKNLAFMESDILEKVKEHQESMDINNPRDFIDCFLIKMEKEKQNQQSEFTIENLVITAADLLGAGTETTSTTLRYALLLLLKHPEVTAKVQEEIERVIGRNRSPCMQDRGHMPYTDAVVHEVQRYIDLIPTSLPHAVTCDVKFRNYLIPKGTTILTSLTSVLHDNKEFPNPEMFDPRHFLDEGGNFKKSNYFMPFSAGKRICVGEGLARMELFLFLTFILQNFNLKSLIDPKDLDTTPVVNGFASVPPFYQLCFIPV
Method in brief: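 CYP2C19 P450-Glo, 1536-well qHTS. Cpd + enzyme/proluciferin substrate 10 min RT; + NADPH regen, 37C 1 h; stop with luciferin detection reagent, 20 min RT, luminescence (RLU). Pos ctrl ketoconazole.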

[17] = qHTS assay to identify small molecule antagonists of the sonic hedgehog signaling (Shh) pathway (AID 1259369; calls by dose curve; also: nearly all actives have a fitted effect of over 45% in size)
Method in brief: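 Read-out is luminescence from a firefly luciferase gene controlled by the Gli1 response element, in 3T3Gli1-Luc cells pre-incubated 4hr then exposed to compounds and conditioned medium for 24hr.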

[18] = biological target: Progesterone receptor (Homo sapiens) (UniProt P06401); assay: qHTS assay to identify small molecule antagonists of the progesterone receptor (PR) signaling pathway (AID 1346795; active = well fitted inhibition curve with a large enough effect in the signal ratio in the repeat runs, not every such curve was filed as active; inconclusive = weak or mixed curves; the % refers to the signal ratio); conditions: PR-UAS-bla HEK293T, beta-lactamase FRET ratio, 16 h; activity change, negative = inhibition: at 92.4 µM (top of the series) unless noted
Method in brief: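 Stimulus R5020 at 1 nM final; cells HEK293T PR-UAS-bla; medium with 2% charcoal-stripped FBS; compound exposure 16 hr at 37C, 5% CO2; detection by FRET beta-lactamase substrate, 2 hr, room temperature.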
Tags tell the direction and shape of the fitted curve or compound fluorescence and quenching.

With `COC(/C=C(\C)CCC=C(C)C)OC` the activation [1] was inconclusive: 4.04%, the Potency [2] was “inactive” and the Potency [3] was “inactive”. The activity change, negative = cytotoxicity [4] was inconclusive: -14.9%, the activation [5] was inconclusive: -8.48% and the Potency [6] was “inactive”. The Potency [7] was inconclusive: 77 µM [cytotoxic, single point].
With `COc1cc2c(cc1OC)CN(C(=O)[C@H](C)N[C@@H](CCc1ccccc1)C(=O)O)[C@H](C(=O)O)C2` the ratio activity, negative = inhibition [8] was inconclusive: -8.4%, the Potency [5] was “inactive” and the Potency [9] was “inactive”. The Potency [10] was “inactive”.
For `CCO[Si](C)(C)OCC`, the Potency [11] was “inactive”.
For `CC(C)CCOC(=O)CC(C)C`, the activation [1] was inconclusive: 1.83%, the ratio activity, negative = MMP loss [2] was inconclusive: 15.4% and the activity change, negative = inhibition [3] was inconclusive: 21.8%. For the same molecule, the activity change, negative = cytotoxicity [4] was inconclusive: 14.1%, the Potency [5] was “inactive” and the activity change, negative = inhibition [6] was inconclusive: 13.1%.
For `COc1ccc2cc1Oc1cc3c(cc1OC)CC[N+](C)(C)[C@H]3Cc1ccc(cc1)Oc1c(OC)c(OC)cc3c1[C@@H](C2)[N+](C)(C)CC3`, the Potency [1] was “inactive”, the Potency [12] was inconclusive: 33.5 µM [rising, partial curve, poor fit] and the Potency [9] was “inactive”. For the same molecule, the Potency [7] was “inactive” and the Potency [10] was “inactive”.
For `CC(C)(C)c1n[nH]c(=O)n(N)c1=O`, the Potency [13] was “inactive”, the Potency [7] was inconclusive: 34.4 µM [cytotoxic, single point] and the Potency [14] was “inactive”.
With `CCCC[N+](C)(CCCC)CCCC` the Potency [4] was inconclusive: 16.9 µM [cytotoxic, full curve, poor fit], the Potency [8] was “inactive” and the Potency [15] was inconclusive: 1.75 µM [cytotoxic, partial curve]. For the same molecule, the activity, negative = inhibition [13] was inconclusive: 28.8%, the Potency [7] was “inactive” and the Potency [16] was “inactive”.
For `Cc1ccccc1OCC1CO1` (stereo not given), the Potency [2] was inconclusive: 61.4 µM [activator], the Potency [12] was “inactive” and the activity change, negative = inhibition [6] was inconclusive: 8.93% [at 78.8 µM]. For the same molecule, the Potency [17] was “inactive”, the Potency [16] was inconclusive: 80.1 µM [inhibitor, single point] and the Potency [11] was “inactive”.
In the case of `O=C(O)c1ccccc1S`, the Potency [4] is reported as “inactive”, the Potency [8] is reported as “inactive” and the activation [5] is reported as inconclusive: 15.5%. The activity change, negative = inhibition [6] was inconclusive: -0.146%, the Potency [18] was “inactive” and the Potency [14] was inconclusive: 21.9 µM [inhibitor, partial curve, poor fit]. For the same molecule, the Potency [10] was inconclusive: 19.5 µM [inhibitor, partial curve].
